Assay results from PubChem BioAssay AID624296 (National Center for Advancing Translational Sciences (NCATS), 2012).
Hit rate of the full screen: of about 350,000 compounds, about 9,900 (2.8%) were called active. The inconclusive results got no clear call from the source; some entries with a clear call stand among them for comparison. Calls follow the shape of the dose curve; as a rule, active = well fitted activation curve with a large enough effect; inconclusive = small, poorly fitted or top-dose-only effect; inactive = no such curve, though single readings can be large or run the other way. Potencies of inconclusive entries are left out as doubtful fits.

assay: A quantitative high throughput screen for small molecules that induce DNA re-replication in MCF 10a normal breast cells.; also: nearly all actives have a fitted effect of over 50% in size; as to activity, positive = re-replication: % of control where 0% means no effect; conditions: MCF 10A DNA re-replication, Hoechst nuclear intensity, 48 h; activity, positive = re-replication: at 46.1 µM (top of the series)
Potency is read from the fitted curve at half-maximal effect; tags tell the direction and shape of the fitted curve.

SMILES	Potency	activity, positive = re-replication
O=C(CN1c2ccccc2Sc2ccccc21)N/N=C/c1ccc(Cl)cc1	inconclusive [activator, partial curve, poor fit]	–
COc1cccc(NC(=O)CSc2nnc(-c3ccoc3C)n2C)c1	–	inactive: 2.08%
Cc1ccc(-n2nc3c(=O)n(CC(=O)NCc4ccc(C)o4)nc(C)c3c2C)cc1	inconclusive [activator, single point]	–
COc1ccc(Br)cc1S(=O)(=O)NCc1ccccn1	inconclusive [activator, single point]	–
Cc1ccc(O)c(-c2cc(-c3ccccc3[N+](=O)[O-])[nH]n2)c1	inconclusive [activator, single point]	–
COC(=O)CC(=O)CSc1nc2c(cc1C#N)CCCCC2	inconclusive [activator, partial curve, poor fit]	–
O=C(NC(=S)Nc1ccccc1N1CCOCC1)c1cccc([N+](=O)[O-])c1	inconclusive [activator, partial curve, poor fit]	–
CCc1ccccc1OCC(=O)NC1CCCC1	–	inactive: 1.52%
CCn1c(C)nnc1SCC(=O)Nc1cccc(C(F)(F)F)c1	inconclusive [activator, single point]	–
COc1ccc(-c2cc(C(=O)N3CC(C)CC(C)C3)c3ccccc3n2)cc1 (stereo not drawn)	inconclusive [activator, single point]	–
COc1ccc(OC)c(CC(=O)N2CCc3cc(OC)c(OC)cc3C2)c1	–	inactive: 2.61%
CCCCn1c(-c2ccco2)nc2ccccc2c1=O	–	inactive: 7.78%
COc1ccc(N2CCN(C(=O)COC(=O)[C@@H](NC(=O)c3ccccc3Cl)C(C)C)CC2)cc1	inconclusive [activator, partial curve, poor fit]	–
CC(=O)Nc1ccc(S(=O)(=O)NCC(=O)OCC(=O)c2cc(C)n(-c3ccc4c(c3)OCO4)c2C)cc1	inconclusive [activator, partial curve, poor fit]	–
Cc1ccc(-c2csc3ncnc(N4CCN(Cc5ccccc5)CC4)c23)cc1	inconclusive [activator, single point]	–
c1ccc(Cn2c[n+](Cc3ccccc3)c3ccccc32)cc1	–	inactive: 1.13%
O=C(CN1C(=O)COc2ccccc21)NCCC1=CCCCC1	inconclusive [activator, full curve]	–
Cc1ccc(-c2nc(NC(=O)CSc3ncn[nH]3)ns2)cc1	inconclusive [activator, single point]	–
Cc1cccc(CSc2nc(N)c(C#N)c(-c3cccs3)c2C#N)c1	–	inactive: 18.1%
Cc1ccc(S(=O)(=O)N2CCCC(C(=O)NC3CCCC3)C2)cc1Cl (stereo not drawn)	–	inactive: 1.45%
NC(=O)c1ccccc1Nc1nc2nc3ccccc3c(=O)n2cc1Br	inconclusive [activator, single point]	–
CCc1ccc2[nH]c(=O)c(CN(CC3CCCO3)C(=S)NCc3ccco3)cc2c1 (stereo not drawn)	inconclusive [activator, single point]	–

SMILES	Potency	activity, positive = re-replication
COc1cc(/C=C2\C(=O)N(c3ccccc3)N=C2C)ccc1Oc1ccc([N+](=O)[O-])cc1[N+](=O)[O-]	active: 9.2 µM	–
CCC(C)(C)n1nnnc1C(c1ccc(O)c(OC)c1)N1CCN(c2nc3ccccc3s2)CC1 (stereo not drawn)	inconclusive [activator, single point]	–
N/C(=N\N=C\c1cccs1)SC1CC(=O)N(c2ccc(Br)cc2)C1=O (stereo not drawn)	–	inactive: 0.886%
NC(=O)CC(NC(=O)Cc1ccc(Br)cc1)c1ccc(N2CCCCCCC2)c([N+](=O)[O-])c1 (stereo not drawn)	inconclusive [activator, partial curve, poor fit]	–
O=c1cc(-c2ccccc2)c2ccc(O)c(CN3CCCCC3)c2o1	inconclusive [activator, single point]	–
Cc1cccc(C)c1-n1nnnc1C1(Nc2ccccc2)CCCCC1	inconclusive [activator, partial curve, poor fit]	–
COc1ccc(NC(=O)CC23CC4CC(CC(Br)(C4)C2)C3)c(OC)c1	–	inactive: 2.06%
CCC(CC)C(=O)Nc1nc(-c2ccc3c(c2)CCN3C(=O)C2CC2)c(C)s1	inconclusive [activator, partial curve, poor fit]	–
COC(=O)CN(c1ccc(Cl)cc1C)S(C)(=O)=O	inconclusive [activator, single point]	–
CN(C)CCNc1ncnc2oc(-c3ccccc3)c(-c3ccccc3)c12	inconclusive [activator, single point]	–
CC(=O)N1CC(C)Oc2ccc(S(=O)(=O)NC(CC(=O)O)c3ccc(C)cc3C)cc21 (stereo not drawn)	inconclusive [activator, partial curve, poor fit]	–
Cc1ccc(-c2nnc(N3CCCCC3)c3ccccc23)cc1	–	inactive: 3.92%
Cc1ccc(C)c(NC(=S)NNC(=O)c2csc(C(C)C)c2)c1	inconclusive [activator, partial curve, poor fit]	–
CC1CCCC(C)N1C(=O)CSc1nc2ncnc(N)c2[nH]1 (stereo not drawn)	active: 6.51 µM	–
CC[C@]12C(=O)N(C)C[C@H]([C@@H]3C(=O)N(C)C(=O)[C@@H]31)N2C(=O)c1ccccc1	inconclusive [activator, single point]	–
Cc1cc(=O)oc2cc3c(cc12)OCCN3	active: 8.2 µM	–
Cc1cc2ccccc2n2c(SCC(=O)NCc3cccs3)nnc12	inconclusive [activator, single point]	–
Cc1ccc2nc3c(cc(C(N)=S)c(=N)n3CCCOC(C)C)c(=O)n2c1	inconclusive [activator, partial curve, poor fit]	–
CCCCCC1CCC(c2ccc(/C(N)=N/O)cc2)CC1 (stereo not drawn)	inconclusive [activator, full curve]	–
Fc1ccccc1NC(=S)NCCc1cccc(Cl)c1	–	inactive: -0.262%
CCCCN(CC)CCCNC(=O)c1cc2c(-c3ccc(OC)c(OC)c3)nn(C)c2s1	inconclusive [activator, partial curve, poor fit]	–
